# Assay results published in publication PMC12120796.
# Sequences of proteins named here, by UniProt entry; tags and fusion partners are left off.
# UniProt Q92831: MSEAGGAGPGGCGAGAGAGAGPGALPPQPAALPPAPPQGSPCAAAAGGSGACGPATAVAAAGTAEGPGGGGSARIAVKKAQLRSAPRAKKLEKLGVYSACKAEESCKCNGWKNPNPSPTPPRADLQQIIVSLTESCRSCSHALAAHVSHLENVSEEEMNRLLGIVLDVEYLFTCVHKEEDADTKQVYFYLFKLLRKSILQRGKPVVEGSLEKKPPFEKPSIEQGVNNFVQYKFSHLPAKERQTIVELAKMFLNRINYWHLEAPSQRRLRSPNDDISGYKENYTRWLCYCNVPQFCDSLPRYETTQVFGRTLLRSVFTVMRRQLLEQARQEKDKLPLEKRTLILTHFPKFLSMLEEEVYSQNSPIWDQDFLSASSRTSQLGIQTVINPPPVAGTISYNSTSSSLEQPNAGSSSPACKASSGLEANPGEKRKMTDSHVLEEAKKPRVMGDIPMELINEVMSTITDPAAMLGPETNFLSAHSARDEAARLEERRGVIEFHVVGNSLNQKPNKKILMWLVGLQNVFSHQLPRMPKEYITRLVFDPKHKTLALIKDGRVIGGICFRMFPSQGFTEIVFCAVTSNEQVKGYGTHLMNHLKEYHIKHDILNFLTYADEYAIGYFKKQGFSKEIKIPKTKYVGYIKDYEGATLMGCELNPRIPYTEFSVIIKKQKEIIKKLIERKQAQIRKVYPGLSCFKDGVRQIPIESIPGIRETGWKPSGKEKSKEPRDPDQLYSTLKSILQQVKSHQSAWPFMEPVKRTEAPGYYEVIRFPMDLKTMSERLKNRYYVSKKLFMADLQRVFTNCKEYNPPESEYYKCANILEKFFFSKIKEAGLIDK
# UniProt P42224: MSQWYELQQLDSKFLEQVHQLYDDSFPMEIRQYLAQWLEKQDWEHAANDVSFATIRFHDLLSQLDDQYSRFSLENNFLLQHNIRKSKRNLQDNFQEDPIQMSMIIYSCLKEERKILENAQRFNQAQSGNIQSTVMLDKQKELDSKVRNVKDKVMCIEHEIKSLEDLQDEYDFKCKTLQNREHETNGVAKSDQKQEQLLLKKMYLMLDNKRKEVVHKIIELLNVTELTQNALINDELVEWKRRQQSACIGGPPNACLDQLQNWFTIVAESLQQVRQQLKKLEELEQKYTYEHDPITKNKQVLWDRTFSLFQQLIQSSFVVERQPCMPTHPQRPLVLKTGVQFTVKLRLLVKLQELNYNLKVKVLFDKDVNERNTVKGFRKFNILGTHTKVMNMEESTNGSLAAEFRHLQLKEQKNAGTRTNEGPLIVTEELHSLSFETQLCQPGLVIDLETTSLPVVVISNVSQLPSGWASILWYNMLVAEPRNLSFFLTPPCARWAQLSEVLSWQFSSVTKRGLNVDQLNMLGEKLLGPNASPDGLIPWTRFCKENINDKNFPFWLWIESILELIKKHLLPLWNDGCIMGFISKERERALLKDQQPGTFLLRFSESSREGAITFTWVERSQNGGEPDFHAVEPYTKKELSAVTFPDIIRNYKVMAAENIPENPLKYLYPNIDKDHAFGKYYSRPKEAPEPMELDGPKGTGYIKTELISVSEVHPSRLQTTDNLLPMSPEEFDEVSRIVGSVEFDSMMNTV
# UniProt Q92793: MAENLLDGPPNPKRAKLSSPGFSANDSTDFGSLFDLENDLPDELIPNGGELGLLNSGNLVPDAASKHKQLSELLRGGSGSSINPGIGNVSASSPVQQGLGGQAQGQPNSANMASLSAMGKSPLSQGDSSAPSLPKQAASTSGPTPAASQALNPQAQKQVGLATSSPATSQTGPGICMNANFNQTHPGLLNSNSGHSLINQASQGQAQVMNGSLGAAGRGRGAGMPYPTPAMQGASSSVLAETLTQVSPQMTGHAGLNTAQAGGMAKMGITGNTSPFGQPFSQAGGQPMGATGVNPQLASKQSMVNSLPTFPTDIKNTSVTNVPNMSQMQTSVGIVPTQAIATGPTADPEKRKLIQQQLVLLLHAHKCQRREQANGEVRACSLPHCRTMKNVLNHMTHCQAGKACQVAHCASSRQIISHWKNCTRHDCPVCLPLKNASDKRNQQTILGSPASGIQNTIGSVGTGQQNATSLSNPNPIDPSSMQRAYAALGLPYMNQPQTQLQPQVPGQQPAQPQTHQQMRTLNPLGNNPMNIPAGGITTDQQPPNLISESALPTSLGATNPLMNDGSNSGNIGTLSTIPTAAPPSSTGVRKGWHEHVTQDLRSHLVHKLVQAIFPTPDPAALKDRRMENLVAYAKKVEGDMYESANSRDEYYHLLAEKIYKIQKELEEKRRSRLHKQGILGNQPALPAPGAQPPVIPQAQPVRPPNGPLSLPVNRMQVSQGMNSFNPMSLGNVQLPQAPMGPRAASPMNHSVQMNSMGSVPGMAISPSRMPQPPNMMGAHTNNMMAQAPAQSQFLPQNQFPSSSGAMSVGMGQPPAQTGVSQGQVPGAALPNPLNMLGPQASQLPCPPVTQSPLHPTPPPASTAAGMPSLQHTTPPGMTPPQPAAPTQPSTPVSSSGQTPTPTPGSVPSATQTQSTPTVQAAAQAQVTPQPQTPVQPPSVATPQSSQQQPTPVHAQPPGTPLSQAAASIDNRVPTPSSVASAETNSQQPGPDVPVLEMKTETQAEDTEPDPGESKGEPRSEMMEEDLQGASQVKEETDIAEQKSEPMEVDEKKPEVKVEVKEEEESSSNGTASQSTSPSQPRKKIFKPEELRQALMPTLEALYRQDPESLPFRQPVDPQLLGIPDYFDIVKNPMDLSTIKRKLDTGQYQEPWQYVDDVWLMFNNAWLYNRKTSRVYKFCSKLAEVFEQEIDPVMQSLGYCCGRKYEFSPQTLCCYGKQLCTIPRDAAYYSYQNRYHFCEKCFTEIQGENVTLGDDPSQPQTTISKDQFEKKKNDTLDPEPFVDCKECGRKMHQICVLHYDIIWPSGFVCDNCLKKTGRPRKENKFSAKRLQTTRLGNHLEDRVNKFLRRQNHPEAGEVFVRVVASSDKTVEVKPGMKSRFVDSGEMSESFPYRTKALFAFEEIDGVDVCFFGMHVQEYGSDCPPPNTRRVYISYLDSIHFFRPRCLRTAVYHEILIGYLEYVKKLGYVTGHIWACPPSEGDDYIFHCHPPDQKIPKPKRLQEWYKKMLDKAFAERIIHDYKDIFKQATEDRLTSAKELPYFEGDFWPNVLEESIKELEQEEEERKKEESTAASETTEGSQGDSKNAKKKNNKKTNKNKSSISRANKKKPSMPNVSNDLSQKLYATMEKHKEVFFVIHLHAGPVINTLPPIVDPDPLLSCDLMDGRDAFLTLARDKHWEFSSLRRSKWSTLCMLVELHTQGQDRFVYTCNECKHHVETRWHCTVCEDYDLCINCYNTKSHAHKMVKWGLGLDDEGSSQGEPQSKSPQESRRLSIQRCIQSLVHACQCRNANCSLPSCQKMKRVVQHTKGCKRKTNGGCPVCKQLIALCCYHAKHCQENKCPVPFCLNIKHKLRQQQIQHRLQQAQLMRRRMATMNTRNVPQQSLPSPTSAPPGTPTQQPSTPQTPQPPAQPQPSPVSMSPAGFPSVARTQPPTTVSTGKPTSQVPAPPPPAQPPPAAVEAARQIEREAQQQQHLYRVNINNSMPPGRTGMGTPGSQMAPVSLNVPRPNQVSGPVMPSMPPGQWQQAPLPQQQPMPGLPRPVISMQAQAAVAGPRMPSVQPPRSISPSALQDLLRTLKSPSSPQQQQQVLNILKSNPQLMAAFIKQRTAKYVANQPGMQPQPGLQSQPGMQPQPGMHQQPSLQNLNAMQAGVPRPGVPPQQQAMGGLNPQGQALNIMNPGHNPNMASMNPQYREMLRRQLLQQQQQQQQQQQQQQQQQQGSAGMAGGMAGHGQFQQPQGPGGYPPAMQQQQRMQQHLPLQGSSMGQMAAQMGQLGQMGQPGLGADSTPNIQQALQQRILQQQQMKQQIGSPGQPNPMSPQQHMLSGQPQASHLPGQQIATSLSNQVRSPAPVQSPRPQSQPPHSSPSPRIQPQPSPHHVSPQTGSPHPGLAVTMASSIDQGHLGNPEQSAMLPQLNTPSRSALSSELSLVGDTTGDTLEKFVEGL
# UniProt Q09472: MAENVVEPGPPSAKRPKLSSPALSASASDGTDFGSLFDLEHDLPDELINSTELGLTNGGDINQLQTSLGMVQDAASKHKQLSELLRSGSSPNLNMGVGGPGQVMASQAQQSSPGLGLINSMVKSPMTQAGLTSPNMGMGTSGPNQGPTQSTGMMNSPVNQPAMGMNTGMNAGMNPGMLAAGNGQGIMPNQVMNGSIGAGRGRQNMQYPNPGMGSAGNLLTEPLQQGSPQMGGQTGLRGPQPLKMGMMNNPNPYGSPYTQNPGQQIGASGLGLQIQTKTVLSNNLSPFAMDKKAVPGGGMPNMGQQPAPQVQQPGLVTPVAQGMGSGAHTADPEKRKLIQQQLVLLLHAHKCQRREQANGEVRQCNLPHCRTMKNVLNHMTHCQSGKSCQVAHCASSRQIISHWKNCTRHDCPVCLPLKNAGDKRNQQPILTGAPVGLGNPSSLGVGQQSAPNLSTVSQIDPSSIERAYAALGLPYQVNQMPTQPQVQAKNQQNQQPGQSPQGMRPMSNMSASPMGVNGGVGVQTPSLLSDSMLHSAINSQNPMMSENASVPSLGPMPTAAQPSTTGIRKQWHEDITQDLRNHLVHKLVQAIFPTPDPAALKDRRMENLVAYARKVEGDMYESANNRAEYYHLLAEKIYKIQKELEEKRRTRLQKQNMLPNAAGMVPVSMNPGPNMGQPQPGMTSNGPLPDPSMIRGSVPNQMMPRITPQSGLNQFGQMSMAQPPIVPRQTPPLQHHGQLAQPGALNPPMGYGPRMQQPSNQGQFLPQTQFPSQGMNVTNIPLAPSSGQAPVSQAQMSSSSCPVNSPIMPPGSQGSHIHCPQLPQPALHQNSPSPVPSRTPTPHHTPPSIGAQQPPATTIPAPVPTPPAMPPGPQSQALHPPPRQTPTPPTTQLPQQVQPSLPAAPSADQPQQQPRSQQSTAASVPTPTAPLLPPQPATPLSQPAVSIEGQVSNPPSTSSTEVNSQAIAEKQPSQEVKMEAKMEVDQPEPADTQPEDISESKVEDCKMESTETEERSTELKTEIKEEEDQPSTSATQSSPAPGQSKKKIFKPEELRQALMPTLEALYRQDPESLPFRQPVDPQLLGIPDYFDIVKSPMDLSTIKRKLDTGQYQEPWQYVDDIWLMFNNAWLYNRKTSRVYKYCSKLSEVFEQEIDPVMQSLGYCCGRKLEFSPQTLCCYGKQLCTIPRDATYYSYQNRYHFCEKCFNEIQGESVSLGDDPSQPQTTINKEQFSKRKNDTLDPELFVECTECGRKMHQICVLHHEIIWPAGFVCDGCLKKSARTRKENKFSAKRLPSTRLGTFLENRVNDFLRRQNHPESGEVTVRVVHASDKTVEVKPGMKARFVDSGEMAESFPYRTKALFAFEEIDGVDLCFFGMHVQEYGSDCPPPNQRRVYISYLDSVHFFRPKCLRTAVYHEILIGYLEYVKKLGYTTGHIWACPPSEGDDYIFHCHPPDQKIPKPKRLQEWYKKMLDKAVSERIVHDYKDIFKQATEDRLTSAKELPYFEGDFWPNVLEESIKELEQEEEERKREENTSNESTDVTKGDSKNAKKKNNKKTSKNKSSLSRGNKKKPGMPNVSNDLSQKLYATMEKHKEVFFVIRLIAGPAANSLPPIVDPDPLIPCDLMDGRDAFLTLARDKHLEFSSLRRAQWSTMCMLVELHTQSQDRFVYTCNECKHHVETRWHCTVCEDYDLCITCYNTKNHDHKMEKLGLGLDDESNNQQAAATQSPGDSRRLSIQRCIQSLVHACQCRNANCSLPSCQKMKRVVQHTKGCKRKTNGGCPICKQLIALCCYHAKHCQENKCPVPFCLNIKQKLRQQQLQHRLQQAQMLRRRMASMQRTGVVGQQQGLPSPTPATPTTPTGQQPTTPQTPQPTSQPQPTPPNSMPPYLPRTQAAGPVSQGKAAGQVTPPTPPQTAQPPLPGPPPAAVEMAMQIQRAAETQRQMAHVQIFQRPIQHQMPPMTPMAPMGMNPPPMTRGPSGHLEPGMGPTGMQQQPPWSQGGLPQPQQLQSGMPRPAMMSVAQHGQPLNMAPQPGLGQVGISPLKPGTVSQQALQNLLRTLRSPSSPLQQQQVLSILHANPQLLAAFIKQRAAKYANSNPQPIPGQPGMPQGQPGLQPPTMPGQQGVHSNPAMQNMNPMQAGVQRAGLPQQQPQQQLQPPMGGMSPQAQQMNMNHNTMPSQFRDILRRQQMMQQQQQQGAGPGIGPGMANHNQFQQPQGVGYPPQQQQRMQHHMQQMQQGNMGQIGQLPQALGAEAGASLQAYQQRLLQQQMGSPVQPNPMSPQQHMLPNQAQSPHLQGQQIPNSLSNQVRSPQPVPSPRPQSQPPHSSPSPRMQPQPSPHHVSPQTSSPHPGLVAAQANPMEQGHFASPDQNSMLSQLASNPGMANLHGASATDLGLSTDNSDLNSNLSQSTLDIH
# These are yes or no findings as the source states them, for the method shown. Binding seen in cells or lysates may run through a third protein. Some results given as binding are weak or reduced against the parent protein; the word gives no strength. Tags and fused reporters may be left off the sequences shown.
# Molecular target: T1, UDP‐glucose dehydrogenase (UGDH) (human (endogenous in human primary chondrocytes)) (UniProt O60701)
# T1 sequence: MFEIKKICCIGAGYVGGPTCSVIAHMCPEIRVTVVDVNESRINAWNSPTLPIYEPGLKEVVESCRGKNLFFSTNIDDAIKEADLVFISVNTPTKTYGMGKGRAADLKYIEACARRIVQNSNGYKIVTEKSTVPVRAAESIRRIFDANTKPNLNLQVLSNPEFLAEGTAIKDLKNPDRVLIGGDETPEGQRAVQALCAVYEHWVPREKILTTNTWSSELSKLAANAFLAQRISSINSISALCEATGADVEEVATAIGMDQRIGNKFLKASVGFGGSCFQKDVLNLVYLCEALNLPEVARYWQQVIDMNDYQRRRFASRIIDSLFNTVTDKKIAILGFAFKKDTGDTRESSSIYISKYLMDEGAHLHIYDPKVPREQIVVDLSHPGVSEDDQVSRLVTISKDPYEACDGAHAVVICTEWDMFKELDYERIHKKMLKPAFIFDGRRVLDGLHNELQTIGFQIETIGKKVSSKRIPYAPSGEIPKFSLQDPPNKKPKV
# Assay: co-IP; IP with anti-UGDH antibody (Sino Biological, 200912-T44) and Protein A/G PLUS-Agarose from 1 mg of human primary chondrocyte lysate, 4 °C for 12 h, rabbit IgG as negative control, Western blot; cells treated with PBS, lactate (25 mM), IL-1β (10 ng/ml) or IL-1β + DCA (20 mM)
row,Substance,binding
1,GCN5 (from UniProt Q92830 1-837) (enzyme),no binding
2,PCAF (from UniProt Q92831 1-832) (enzyme),no binding
3,nuclear export receptor chromosome region maintenance 1 (CRM1) (from UniProt O14980 1-1071),binds
4,signal transducer and activator of transcription 1 (STAT1) (from UniProt P42224 1-750),binds

# Further lines, results first:
row,binding,Substance
1,no binding,CBP (from UniProt Q92793 1-2442) (enzyme)
2,binds,acyltransferase P300 (from UniProt Q09472 1-2414) (enzyme)
